Results published in the supplement of paper PMC10126150.
Sequences with one replicate were seen in a single cluster, so their values are uncertain.

Tested on: ATP
Assay: switch fluorescence ratio, 500 uM ATP over buffer (Cy3 cluster intensity, sum of 5 cycles each) (fold (ratio)); higher = stronger signal-on switching upon ATP binding; sequences stand for … in TCGTCGGCAGCGTCAGATGTGTATAAGAGACAGTTTTTTTTTTTTTTTTTTTTTTTTT…TC
Conditions: aptamer strand: ATP DNA aptamer (quencher-CACCTGGGGGAGTATTGCGGAGGAAGG + anchor), 100 nM annealed; ATP concentration: 500 uM; one replicate
Method in brief: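 Clusters with intensities outside 100-1000 RFU were excluded. The remaining Cy3-labelled switching-strand clusters on a modified Illumina MiSeq flow-cell had been annealed to 100 nM quencher-labelled ATP aptamer and imaged in selection buffer, then after 15 min with 500 uM ATP at 22 °C, for five cycles separated by NaOH stripping and re-annealing. The fluorescence ratio, averaged per switch-domain sequence, is each cluster's summed target-cycle Cy3 intensity over its summed buffer-cycle Cy3 intensity.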
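Also: ATP exposure 15 min at 22 °C before imaging.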

| Sequence | switch fluorescence ratio |
| --- | --- |
| ATTAATGGCA | 0.988 |
| ACCTAGGGAT | 1.04 |
| CTCTGTAGCT | 1.23 |
| TTACGGCTAT | 1.1 |
| GGAATTGTAG | 1 |
| TAAGCTGGCC | 1.1 |
| GCTACAGCTC | 1.02 |
| TGCGTTGAGT | 1.02 |
| GGGCGAAAAG | 1.06 |
| TTAGTGAGCT | 1.02 |
| ATTGTTGCGT | 0.987 |
| GAATAGCTTA | 1.02 |
| GCGTTGGAT | 0.986 |
| ATCAAAGTTG | 0.997 |
| CAGGCGGCTT | 1.04 |
| CGGCAGCGCG | 0.991 |
| GTTGTTATCC | 0.994 |
| GCGCCTTGAG | 0.997 |
| GCAATCTCCC | 3.72 |
| TTTGCAGTCA | 1 |
| GATATTAGCT | 0.988 |
| TAAGTTATG | 1.01 |
| AGAAGCCACA | 1.06 |

| Sequence | switch fluorescence ratio |
| --- | --- |
| TTCAGTGACC | 1.05 |
| ACACCGGGGT | 1.02 |
| ATGGGCTGCA | 1.05 |
| TGCAAATCGG | 1.03 |
| TATCCCCAAA | 1.01 |
| TGGAGTTTGT | 0.976 |
| ATTGGCAAGA | 0.975 |
| GGCACGGCCT | 1.06 |
| AATGCACCCC | 1.21 |
| AATTTGTCTC | 0.978 |
| ACATTGTTTG | 0.994 |
| GGCGGGAATA | 1.08 |
| ACGGGCATTG | 1 |
| CTAAGTAAAA | 1.02 |
| TCCGGGGGCC | 1 |
| TGACGGGAAC | 1.21 |
| AATCCACGG | 1.16 |
| GCATCTGCCC | 1.08 |
| CTGTTTAACG | 0.956 |
| TTTAAAACCG | 1.03 |
| AGTGTTTTTC | 1.04 |
| GTGGAACGGG | 0.98 |
| TGTCTCGTCC | 0.991 |

| Sequence | switch fluorescence ratio |
| --- | --- |
| GTTCAACAGG | 1.12 |
| GCGATCCGCC | 1.05 |
| GTAGTGCACG | 0.986 |
| GAAACTTTTA | 0.995 |
| ACCTGTGTCA | 1.07 |
| ACCTTGATCA | 1.02 |
| GCGCCAAAC | 1.56 |
| CCTCTAGGGA | 1.05 |
| TAGGTCCTGC | 1.02 |
| GGAATACTAA | 1.17 |
| CTATGAGCAA | 4.7 |
| GTGCCGATGC | 1.03 |
| ATTGGGTCAT | 0.994 |
| AGCTCTGCCA | 1.03 |
| GAGAGAAGGT | 1.02 |
| AGATTGAATA | 1 |
| CTGTGTTCGA | 0.973 |
| AGTTCAAGAA | 0.992 |
| AGCTTACAAT | 1.02 |
| TCGGGACGTG | 0.932 |
| CGTGGACGTT | 1.02 |
| TGGGGAGTTC | 1.02 |
| CCATTAACGT | 1.03 |

| Sequence | switch fluorescence ratio |
| --- | --- |
| CGAGCTCAGT | 1.06 |
| GGCCATAAGT | 1.01 |
| ACTTTCCCCG | 3.22 |
| CCCTAAACGA | 1.02 |
| CTCACTCTTC | 1.01 |
| GTTCAATTAT | 0.985 |
| CATACATAGA | 0.979 |
| CGGGCAAGTA | 1.02 |
| TTGAACGACT | 1.03 |
| GAGTCTATTT | 0.991 |
| GTCATTGACT | 0.982 |
| AGGGCCCACG | 1.04 |
| GGATATAAAA | 1.01 |
| AGAGAAGCGA | 0.982 |
| ATAGCCGAGA | 0.976 |
| GCTAGATCCA | 0.964 |
| GCTAATCTAG | 1 |
| CCCATACCCC | 1.13 |
| GAGTCTAACC | 1.04 |
| TATGCTCGG | 1.03 |
| TTGCAAACG | 1.34 |
| GCGCGCTTGG | 0.996 |
| CTATGCGGCA | 1 |

| Sequence | switch fluorescence ratio |
| --- | --- |
| TCAAACTTTG | 0.931 |
| AAGGTGGTAG | 1.02 |
| TCTATATGC | 1.04 |
| GGGGATCTAT | 0.945 |
| AATATCATGA | 1.03 |
| GGGGCGAAGC | 1.18 |
| GTGAACAAAC | 0.971 |
| ATGTTTGGG | 0.967 |
| GTTAGCCCTA | 0.977 |
| ATACGTGGGT | 0.996 |
| ATTTGCTAGT | 0.991 |
| GGGTTATGA | 1.01 |
| GTCGCGCTGA | 0.981 |
| AATAGCGGCC | 1.08 |
| AGATCGTTTC | 1 |
| TCCCCATTGT | 1.05 |
| TTATTAAGGC | 1.05 |
| CATCAGGCAG | 1.31 |
| ATAGAGTTAA | 1.01 |
| GGTACCCGTG | 1.05 |
| CGCGCTTGGA | 0.988 |
| CCAGTGTGCA | 1.29 |
| TCCAACTTG | 0.994 |

| Sequence | switch fluorescence ratio |
| --- | --- |
| AGGGTTGATC | 1.04 |
| CGGAAATTCT | 1.01 |
| TGCGTACGGC | 1.03 |
| GCAGGTACAG | 1.02 |
| GTTGTGGGC | 0.964 |
| CTAACTGTT | 0.938 |
| AAATATTCAT | 0.96 |
| CCCTTGTGTT | 1.08 |
| CGGGACCCGG | 1.07 |
| CTGATTCAAA | 0.988 |
| TGATAGTCAT | 1.02 |
| CGTAATGTGG | 1 |
| GCAGTATGGC | 0.959 |
| AGGCCAGGCC | 1.05 |
| TCCATATATC | 1.04 |
| AAAGGTTATT | 1.01 |
| CTAACTTTC | 1.09 |
| CTAAAGGGCT | 0.968 |
| GTCGGGTGCT | 0.984 |
| TGGTTCGACG | 1.06 |
| AGCTATGAAG | 1.01 |
| ATAGTTGGGC | 1.1 |
| TGTCTTTGCA | 1 |

| Sequence | switch fluorescence ratio |
| --- | --- |
| AATGTGAGC | 0.977 |
| GGTATATAAC | 0.962 |
| TTGACTGCTC | 0.995 |
| TCCCCCAGTG | 4.08 |
| TTAGGCCGAA | 1.05 |
| GGGCCCCT | 1.42 |
| CTAGATACCT | 1.24 |
| CGTTACGGGC | 1.06 |
| ACTAATTGTT | 1.01 |
| TAAGGGGTTG | 1.01 |
| ACGGGGGTCG | 0.97 |
| AATTGGAT | 0.977 |
| GTAAGTGTCC | 0.995 |
| TATATAAGTA | 1.01 |
| AACTACTCCT | 1.17 |
| CAGGATGGTT | 0.973 |
| CAACGGGCAG | 1.02 |
| CAACTTTGTC | 0.935 |
| AGGAAATTGG | 0.972 |
